Measured values taken from the supplement of paper PMC3334620.
The full ranking holds about 33,000 sequences; the median of “E-score (-0.5 to 0.5)” is about -0.053, and the highest 2% start at about 0.37. Some of the results follow.

Biological target: Hap1 (UniProt P0CE41)
Assay: PBM E-score (8-mer binding enrichment) (E-score (-0.5 to 0.5)); higher = stronger / more preferred TF binding; most listed sequences are background and not binding sites
Conditions: protein concentration: 200 nM; construct: GST-DNA-binding domain
Method in brief: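 Using PURExpress in vitro transcription/translation, GST-tagged yeast transcription factors were made in full-length or DNA-binding-domain form. These were applied at about 100-200 nM to double-stranded universal all-10-mer Agilent arrays, and bound protein was detected with fluorescent anti-GST. Scans were normalised with masliner before the Universal PBM Analysis Suite assigned E-scores to ungapped eight-base words pooled with their reverse complements.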

UniProt P0CE41, sequence (P0CE41 whole entry): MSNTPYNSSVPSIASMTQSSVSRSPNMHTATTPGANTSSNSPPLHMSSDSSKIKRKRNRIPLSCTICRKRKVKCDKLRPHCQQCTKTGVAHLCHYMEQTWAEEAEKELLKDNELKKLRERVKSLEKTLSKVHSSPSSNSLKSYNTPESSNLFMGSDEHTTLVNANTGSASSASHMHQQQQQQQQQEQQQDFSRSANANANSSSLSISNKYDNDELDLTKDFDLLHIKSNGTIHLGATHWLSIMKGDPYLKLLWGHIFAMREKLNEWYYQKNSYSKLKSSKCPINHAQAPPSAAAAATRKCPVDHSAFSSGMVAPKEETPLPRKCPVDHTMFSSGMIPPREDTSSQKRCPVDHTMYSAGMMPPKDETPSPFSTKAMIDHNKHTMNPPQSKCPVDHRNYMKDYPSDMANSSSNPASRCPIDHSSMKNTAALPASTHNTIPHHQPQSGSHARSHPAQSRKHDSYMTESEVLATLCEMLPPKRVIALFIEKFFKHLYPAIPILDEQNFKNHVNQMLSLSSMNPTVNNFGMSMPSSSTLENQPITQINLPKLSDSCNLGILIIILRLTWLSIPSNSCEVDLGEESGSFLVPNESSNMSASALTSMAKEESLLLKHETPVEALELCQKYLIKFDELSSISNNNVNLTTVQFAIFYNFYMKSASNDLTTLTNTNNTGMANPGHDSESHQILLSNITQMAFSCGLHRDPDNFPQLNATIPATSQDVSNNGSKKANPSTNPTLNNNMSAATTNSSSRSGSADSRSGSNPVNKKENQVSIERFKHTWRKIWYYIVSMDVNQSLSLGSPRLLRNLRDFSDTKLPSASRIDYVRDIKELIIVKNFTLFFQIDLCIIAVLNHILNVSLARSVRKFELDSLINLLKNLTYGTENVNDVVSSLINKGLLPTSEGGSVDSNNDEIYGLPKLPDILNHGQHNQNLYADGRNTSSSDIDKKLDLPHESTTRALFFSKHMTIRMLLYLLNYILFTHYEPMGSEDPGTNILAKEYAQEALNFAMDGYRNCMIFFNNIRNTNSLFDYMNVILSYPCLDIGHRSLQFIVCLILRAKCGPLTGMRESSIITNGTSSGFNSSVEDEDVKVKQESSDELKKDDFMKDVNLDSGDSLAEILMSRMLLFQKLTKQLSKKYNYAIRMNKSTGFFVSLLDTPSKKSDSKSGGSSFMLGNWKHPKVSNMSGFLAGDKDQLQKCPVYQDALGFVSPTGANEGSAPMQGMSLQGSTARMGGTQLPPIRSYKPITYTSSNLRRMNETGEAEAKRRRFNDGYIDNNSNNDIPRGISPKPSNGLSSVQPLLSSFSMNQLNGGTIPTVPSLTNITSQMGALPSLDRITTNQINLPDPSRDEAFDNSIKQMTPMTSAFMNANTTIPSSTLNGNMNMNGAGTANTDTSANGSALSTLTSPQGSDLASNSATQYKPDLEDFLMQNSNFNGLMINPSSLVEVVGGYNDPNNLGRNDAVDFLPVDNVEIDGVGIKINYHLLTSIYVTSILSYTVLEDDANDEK

Row | Sequence | PBM E-score
1 | CTAAAGGC | -0.143
2 | CGTTTTTA | 0.0673
3 | GGGCATAC | 0.156
4 | CTCTGTCA | -0.296
5 | GGTCTGCA | 0.0455
6 | ACGCTCAT | -0.174
7 | CGCTACGC | 0.154
8 | AAAGGGAC | -0.168
9 | ATTTCGGG | 0.29
10 | CTCAAAAA | -0.158
11 | AAACTAGG | -0.0582
12 | CGTTCCAA | -0.0915
13 | TAAGAAAA | -0.121
14 | GTTGAACA | -0.155
15 | GGTCCCCA | 0.0281
16 | AGCCCTCA | -0.0827
17 | GCCCGTAC | 0.0412
18 | CCACAAAC | 0.0992
19 | GTTTCATA | -0.108
20 | ATTTCAGA | -0.121
21 | CGCAACGA | 0.0199
22 | AACTTCGG | 0.33
23 | CAGATGCG | -0.162
24 | TTCGGCAA | 0.185
25 | ACCCCAGA | -0.213

Row | Sequence | PBM E-score
26 | AGCTGCCG | 0.172
27 | GTCTACAA | -0.272
28 | AGACCCAG | -0.339
29 | ACCCGCCA | -0.0193
30 | CTCGGACC | 0.375
31 | GAATAATC | -0.0357
32 | CAGATTAA | 0.146
33 | GTCTGAAA | -0.0828
34 | AACCGTAA | 0.159
35 | CTAAGCGC | 0.0967
36 | CAGCCTGC | -0.27
37 | ACAAGCAA | -0.243
38 | AAGGACGG | 0.0575
39 | CCGTTCCG | 0.289
40 | CGATGTAC | 0.0471
41 | AATTCGTG | -0.0422
42 | ATGCACAC | -0.0597
43 | CATGATAG | -0.236
44 | CAAAGCGA | 0.0517
45 | CCTTGCTC | 0.00079
46 | CGAACTTC | -0.059
47 | GGCGCCTA | -0.121
48 | AATACGGA | 0.294
49 | CTTTGTTC | 0.11
50 | AACGAGAG | -0.0289

Row | Sequence | PBM E-score
51 | TAGAGCTA | -0.229
52 | CCCACGGA | 0.278
53 | AGATTAAT | 0.0369
54 | AAGGGTGT | 0.141
55 | GGTCTCAC | -0.00887
56 | ATGGTACG | -0.0245
57 | GGCGTCCC | 0.00328
58 | ATAATCTA | 0.0153
59 | CGCCCTAA | -0.0687
60 | CAGCCAGC | -0.219
61 | ATAAGACC | 0.163
62 | AACCTTGA | -0.0892
63 | CGCCGGAA | 0.357
64 | ACCGGCCT | 0.181
65 | CTGTCCCC | -0.0758
66 | GACACCAA | -0.00035
67 | GACTGTCA | -0.107
68 | CAAGGGAA | -0.172
69 | CTTTAATC | 0.117
70 | CAGAAGTC | -0.105
71 | TATAGCAA | -0.0406
72 | ACCGCGCC | 0.0941
73 | AGTGAACC | -0.069
74 | CACGAAAG | -0.147
75 | GTCTTAAA | -0.0176

Row | Sequence | PBM E-score
76 | CATACGTC | 0.145
77 | TCCCCCAA | -0.288
78 | TGGCGGAA | 0.113
79 | ACCGGAAA | 0.417
80 | GGATTTAA | 0.444
81 | CTGTGATC | -0.0322
82 | AAATCTAT | 0.0492
83 | GCCCATAC | -0.194
84 | GATTATAC | 0.152
85 | AAGCCAGG | -0.0951
86 | ATCCCCGC | 0.371
87 | CTACTCGC | -0.0426
88 | CCGACCAG | 0.168
89 | TGCTGCAA | -0.142
90 | ATAGGTGA | -0.0836
91 | CCGGAACC | 0.35
92 | CAGAGCAA | -0.155
93 | CATGACTC | -0.291
94 | CTGGTGCA | -0.255
95 | CAGCGCAA | -0.18
96 | AAGACATG | -0.258
97 | GGCCCAAA | 0.102
98 | ACTGGACC | 0.0992
99 | GAATGTGC | -0.194
100 | ATCATGAA | -0.163

Row | Sequence | PBM E-score
101 | CGTAAGCA | -0.123
102 | CAGTCCAG | -0.189
103 | AGATAAAC | 0.21
104 | CGGGCCAG | 0.255
105 | CTTGGGGC | -0.0418
106 | AATGCAGT | -0.0352
107 | CCATGTGC | -0.126
108 | AGCCAGGG | -0.269
109 | ACTGGATG | -0.233
110 | AGCCTCTC | -0.254
111 | CCACACCG | 0.115
112 | CCTGCGAC | -0.109
113 | CAGCAGCG | -0.034
114 | AGATGTTG | -0.0337
115 | ATGAGGGA | -0.315
116 | AGTTTAAA | 0.0005
117 | AGGTCGGG | 0.151
118 | GACGCTCA | -0.112
119 | GCAGAAGC | -0.0329
120 | ACAGTTAT | -0.0707
121 | AGCTAGCA | -0.231
122 | GACCCCAA | -0.0595
123 | ACAATGTA | -0.0915
124 | TCACATAA | -0.062
125 | GCCCGAGC | 0.311

Row | Sequence | PBM E-score
126 | ATCGTTAC | -0.186
127 | ATAGGTTG | -0.102
128 | ACCACGCT | -0.0502
129 | GAGAGTAA | -0.0103
130 | GCCCGTTA | 0.287
131 | CCCCCATA | -0.0887
132 | CAAGATGC | 0.0722
133 | ATATGCTG | -0.197
134 | GCAATACA | 0.0803
135 | CAAGTATC | -0.0874
136 | ACATCGCA | -0.0398
137 | GCTTCGTA | -0.371
138 | CATCAGGC | -0.022
139 | ATAAAATC | 0.145
140 | AGTCACTA | -0.153
141 | ACGAGGTG | -0.102
142 | AAGCGTAT | -0.0954
143 | AATTAACT | 0.0148
144 | AAGCGCTA | 0.149
145 | CAGCCTAC | -0.0241
146 | CCTCGCCG | 0.0654
147 | CGCGGGCA | 0.256
148 | CTCTACGC | -0.198
149 | ACGGGCGC | 0.184
150 | CGCATTAG | -0.0393

Row | Sequence | PBM E-score
151 | CTTACGAC | -0.222
152 | AAAGTCAG | -0.199
153 | AAAACAAG | -0.196
154 | CGTGCGAG | 0.117
155 | CAGTGTGG | -0.239
156 | GCCCCTAA | 0.0296
157 | AGCACGTA | -0.154
158 | CAAACTGC | -0.0478
159 | ACGCGTAC | -0.176
160 | GATACGCC | 0.178
161 | CTCGGTTC | 0.123
162 | AAGTATTC | -0.155
163 | AGAGTGCT | -0.168
164 | CAGCTCAA | -0.0862
165 | ATTTGGCC | 0.111
166 | AACGCCTT | 0.0685
167 | ATCATAAT | -0.04
168 | CGGCGTTA | 0.476
169 | GGATATAC | 0.319
170 | TACGTAGA | -0.173
171 | ACAGCTCA | -0.251
172 | CATTCCGC | 0.122
